# In PubChem BioAssay AID485364 (National Center for Advancing Translational Sciences (NCATS), 2010):
# In all, about 360,000 compounds went through this assay and about 11,000 (3.1%) were called active. Inconclusive means that the source gave no clear call. Such entries were picked first, then a sample of the others. Calls come from the whole dose curve; as a rule, active = well fitted inhibition curve with a large enough effect; inconclusive = small, poorly fitted or top-dose-only effect; inactive = no such curve, though single readings can be large or run the other way. No potency is given beside an inconclusive call; the fits are too rough.
# Molecular target: Schistosoma mansoni thioredoxin glutathione reductase (TGR) (UniProt Q962Y6)
# Assay: qHTS Assay for the Inhibitors of Schistosoma Mansoni Peroxiredoxins; note: nearly all actives have a fitted effect of over 60% in size
# Details: purified TGR, DTNB reduction, TNB absorbance 405 nm; activity change, negative = inhibition: at 114 µM (top of the series) unless noted
# Outline: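 Kinetic colorimetric format: TGR-catalysed, NADPH-driven DTNB reduction monitored via TNB absorbance. Enzyme dispensed at 20 nM; compound exposure 15 min at room temperature before reaction start.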
# % is set by controls: 0 for no effect and ±100 for the full control effect; potency is the fitted concentration of half-maximal effect; tags give direction and shape of the fitted curve.
SMILES,"activity change, negative = inhibition",Potency
CCOc1cccc(C(=O)N2CCCN(C)CC2)c1,inactive: 5.15%,–
NC(=O)c1ccc(NC(=O)C2CCN(S(=O)(=O)Cc3ccccc3)CC2)cc1,inactive: -8.41%,–
O=C(O)c1ccc2c(c1)C1C=CCC1C(c1cc3c(cc1Br)OCO3)N2 (configuration not stated),inactive: -9.6%,–
O=C(CN1CCN(Cc2ccc(Cl)cc2)CC1)N/N=C/c1cccc(F)c1,–,"inconclusive [inhibitor, partial curve]"
CN(C)C(CNC(=O)c1ccc(S(=O)(=O)Nc2ccccc2)cc1)c1ccco1 (configuration not stated),–,"inconclusive [inhibitor, partial curve]"
O=C(O)c1ccccc1N/N=C/C1=C(N2CCOCC2)C(=C\c2ccccc2)/CC1,–,active: 15.8 µM
Cc1nn2c(=O)cc(COC(=O)c3ccc(NC(=O)c4cccc(Br)c4)cc3)nc2s1,inactive: -1.37%,–
COc1ccccc1NC(=O)CSc1nc(-c2ccc(C)cc2)nc2c1Cc1c(CO)cnc(C)c1O2,–,"inconclusive [inhibitor, partial curve]"
Cc1ccccc1C(=O)NNC(=O)/C=C\C(=O)O,–,active: 2 µM
Cc1c(C(=O)Nc2ccc(Nc3ccccc3)cc2)cccc1[N+](=O)[O-],inactive: 3.58%,–
COC(=O)[C@]1(C)N[C@H](c2ccc(-c3ccccc3)cc2)[C@@H]2C(=O)N(C)C(=O)[C@@H]21,–,"inconclusive [inhibitor, partial curve]"
COc1ccc(-c2noc(N3CCC(C(=O)N4CCN(c5ccccc5F)CC4)CC3)n2)cc1,inactive: -10.9%,–
O=C(Nc1ccccc1)c1nsnc1C(=O)Nc1ccccc1,inactive: 0.538%,–
Cc1ccc(/C=C/C(=O)O)cc1S(=O)(=O)Nc1ccc(C(=O)O)cc1,–,active: 35.5 µM
COc1ccc(/C=C/C(=O)NCCSCc2ccco2)cc1,–,"inconclusive [inhibitor, partial curve]"
COCCCn1c(-c2ccccc2Cl)n[nH]c1=S,inactive: -2.25%,–
O=C(NC1(C(F)(F)F)C(=O)Nc2c1c(=O)[nH]c(=O)n2-c1ccccc1)c1ccccc1Cl (configuration not stated),inactive: 7.81%,–
Cc1ccc(SCC(=O)N2c3ccccc3Sc3ccccc32)cc1,–,"inconclusive [inhibitor, partial curve]"
O=C(c1ccco1)N1CCN(C(=O)c2ccc(CS(=O)c3ccc(F)cc3)o2)CC1 (configuration not stated),–,"inconclusive [inhibitor, partial curve]"
CCC(=O)Nc1ccc(-c2ccc(N3CCN(C)CC3)nn2)cc1,inactive: -9.85%,–
CCC1CCCCN1CC(=O)c1c(C)[nH]c2ccc(OC)cc12 (configuration not stated),–,"inconclusive [inhibitor, partial curve]"
O=C(CSc1nnc2ccccn12)N1CCc2ccccc2C1,inactive: -5.22%,–
